From the supplement of paper PMC10338343
± gives the standard deviation. Only a part is listed here, and it is no random draw.

Test system: MIWI (PIWIL1) piRISC loaded with piRNA #1 (30 nt)
Assay: pre-steady-state target cleavage rate (min^-1); MIWI and MILI are mouse PIWI proteins and EfPiwi is from a freshwater sponge; tags in brackets are library labels; higher = faster piRNA-guided slicing of the target
Settings: guide: piRNA #1 5'p-UGAGGUAGUAGGUUGUAUAGUAUCCAGAGG; auxiliary factor: 500 nM mouse GTSF1
Summary of the method: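 In HEPES–potassium acetate buffer at 33 °C, […] transcribed, DNA-blocked target RNA library was mixed with 1 nM active affinity-purified piRISC carrying one synthetic guide, with or without 500 nM GTSF1 partner protein, for 0–8 or 0–960 min. Uncleaved targets were sequenced and normalised to depth and to weakly complementary targets; three trials were pooled and k3 was capped at 0.0001 min^-1. The pre-steady-state cleavage rate followed from a burst-and-steady-state fit.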
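Note: 1 nM active piRISC with 0.1 nM target library at 33 °C single turnover.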

Row | Sequence | pre-steady-state target cleavage rate
1 | GGAGAGGAUACUAUUCUACCUACUACCUCA | 0.861 ± 0.061
2 | GGAGACCUAUGUAUUCAACCUACUACGUCA | 0.00199 ± 0.002
3 | CCUCUGGAUACUAUACAACCUACAUCCUCA | 0.523 ± 0.038
4 | GGAGUCGAUACUAAACAACCUACUACCUCA | 1.53 ± 0.1
5 | GGUCUGGAUACUAAUGAACCUACUACCUCA | 0.173 ± 0.036
6 | GGAGUGGAACUAUACAACCUACUACCUCA | 1.38 ± 0.096
7 | GGUCUGGAUACAAUACAACCUUCUACCUCA | 0.626 ± 0.035
8 | GGAGAGGAUACUAUACAACCAACUAGCUCA | 0.0485 ± 0.0086
9 | GGAGACCUAACUAUACAAGCUACUACCUCA | 0.546 ± 0.042
10 | GGACGUGGAUACUAUACAACCUACUACCUCA | 1.85 ± 0.11
11 | GGAGACCUUACUAAACAACCUACAACCUCA | 0.228 ± 0.041
12 | GGAGACCAUUCUAUAGAACCUACUACCUCA | 0.863 ± 0.076
13 | GGUCUGGAUACUAUACAACCUACUACCCCA | 0.6 ± 0.1
14 | GGAGACCUAUGUAUACAACCUACCUACCUCA | 0.0235 ± 0.0043
15 | GGAGAGGAUACUAUGACAACCUACUACCUCA | 1.09 ± 0.054
16 | GGAGUGGAUAGUAUACAACCUUCUACCUCA | 0.37 ± 0.023
17 | GCUCUAGAUACUAUACAACCUACUACCUCA | 2.09 ± 0.12
18 | GGAGACCUAUGAUAUGUACCUACUACCCCA | < 0.0001
19 | GGAGACGAUUCUAUACAACCUACUACCUCA | 1.77 ± 0.11
20 | GGACUGGAUAGUAUUCAACCUACUACCUCA | 0.572 ± 0.063

Row | Sequence | pre-steady-state target cleavage rate
21 | GGAGAGGAUACUUUACUACCUACUACCUCA | 0.884 ± 0.062
22 | GGAGAGGAUACUAUACAACCUACUACCAUCA | 0.303 ± 0.025
23 | GGAGACCUAUGAGUACAACCUACUACCUCA | 0.00572 ± 0.0029
24 | GGAGACCAUAGUAUACAACCUUCUACCUCA | 0.274 ± 0.033
25 | GCUGUGGAUACUAUACAACCUACUACCUGA | 0.776 ± 0.18
26 | GGACUGGAUACUAUACAACCAACAACCUCA | 0.0351 ± 0.0073
27 | GGAGACGAUACUAUAGUUCCUACUACCUCA | 0.157 ± 0.018
28 | GGACUGGAUACUUUACAACCUACUAGCUCA | 0.00803 ± 0.0022
29 | GGAGACCUUACUAUACAACCUACUUCCUCA | 0.399 ± 0.035
30 | CCUCUGGAUACUAUAGAACCUACUAGCUCA | 0.0166 ± 0.0061
31 | GGAGUGGAUACUAUACAACCUACUACGCUCA | 0.453 ± 0.04
32 | GGAGACCUUUCUAUACAACCUACAACCUCA | 0.286 ± 0.032
33 | GGAGACCUAUGAAUACAACCUACUACCCCA | 0.00319 ± 0.0027
34 | GGAGACCAGACUAUACAACCUACUACCUCA | 1.15 ± 0.12
35 | CCUCUGGAUACUAUACAACCAAGUACCUCA | 0.0422 ± 0.01
36 | GGUCUGGAUACUAUACAACCUACUUACCUCA | 1.23 ± 0.084
37 | GGUCUGGAUACUAUACAACCUACUACCGUCA | 0.128 ± 0.019
38 | GCUCUGGAUACUAUUCAACCUACUACGUCA | 1.33 ± 0.087
39 | CCUCUGCAUACUAUACAACCUACAACCUCA | 1.7 ± 0.12
40 | GGACUGGAUACUAUACUACCUACAACCUCA | 0.39 ± 0.057
